# Source: PubChem BioAssay AID2147 (National Center for Advancing Translational Sciences (NCATS), 2009)
# Among all 230,000 compounds or so, about 3,600 (1.6%) were called active. Inconclusive means that the source gave no clear call. Such entries were picked first, then a sample of the others. The call rests on the fitted dose curve; in most records, active means well fitted inhibition curve with a large enough effect (not every such curve was filed as active); inconclusive means small, poorly fitted or top-dose-only effect, or another doubt; inactive means no such curve, though single readings can be large or run the other way. Potencies of inconclusive entries are doubtful fits and often do not repeat.
# Molecular target: Lysine-specific demethylase 4E (Homo sapiens) (UniProt B2RXH2)
# Experiment: qHTS Assay for Inhibitors of Human Jumonji Domain Containing 2E (JMJD2E)
# Details: JMJD2E catalytic domain, FDH-coupled NADH fluorescence (FDH is formaldehyde dehydrogenase); series mostly up to 57.1 µM; activity change, negative = inhibition: at the top concentration
# Further: nearly all actives have a fitted effect of over 50% in size.
# Potency means the concentration at half of the fitted maximal effect; tags describe the fitted curve by direction and shape.
# 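Wherever activity change, negative = inhibition is given: 0% = wells with enzyme and -100% = buffer wells without enzyme.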
# Sequence of UniProt B2RXH2 (B2RXH2 whole entry, looked up, the tested form may be a part): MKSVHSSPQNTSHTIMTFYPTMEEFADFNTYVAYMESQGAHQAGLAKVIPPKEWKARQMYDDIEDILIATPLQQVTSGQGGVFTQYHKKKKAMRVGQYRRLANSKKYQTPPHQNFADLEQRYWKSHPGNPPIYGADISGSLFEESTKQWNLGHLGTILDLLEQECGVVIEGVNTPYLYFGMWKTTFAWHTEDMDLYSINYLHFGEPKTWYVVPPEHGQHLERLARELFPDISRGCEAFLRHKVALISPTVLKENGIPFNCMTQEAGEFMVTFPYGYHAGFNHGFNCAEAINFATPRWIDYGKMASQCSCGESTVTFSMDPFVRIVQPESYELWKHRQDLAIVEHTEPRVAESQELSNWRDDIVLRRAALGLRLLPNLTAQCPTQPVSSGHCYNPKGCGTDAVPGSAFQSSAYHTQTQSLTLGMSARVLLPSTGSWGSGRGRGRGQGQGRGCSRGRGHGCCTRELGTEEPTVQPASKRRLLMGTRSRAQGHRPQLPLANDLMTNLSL
Compound,Potency,"activity change, negative = inhibition"
CC1CC(C)CN(CCOc2cccc(Cl)c2Cl)C1 (stereo not given),"inconclusive: 28.2 µM [inhibitor, single point]",–
Cc1nnc(C)c2c(C)n(C(C)c3ccccc3)c(C)c12 (stereo not given),"inconclusive: 20 µM [inhibitor, partial curve]",–
CC(=O)n1c2c(c3ccccc31)OC(N)=C(C#N)C2c1ccc(C(C)C)cc1 (stereo not given),"inconclusive: 39.8 µM [inhibitor, single point]",–
Cn1c(CNC(=O)c2ccco2)nnc1SCC(=O)N1c2ccccc2Sc2ccccc21,–,inactive: 3.27%
COc1ccc(/C=C/c2nnc(NC(=O)CC(C)C)s2)cc1,"inconclusive: 35.5 µM [inhibitor, partial curve]",–
O=C(CNC(=O)c1ccco1)N/N=C/c1ccccc1[N+](=O)[O-],–,inactive: 0.488%
COc1ccc(-c2cc(-c3ccc(O)cc3)nc(N)c2C#N)cc1OC,"inconclusive: 39.8 µM [inhibitor, single point]",–
Cc1nn(Cc2ccc(Cl)c(Cl)c2)c(C)c1NC(=O)c1cc(-c2ccc3c(c2)OCO3)on1,–,inactive: -14.4%
Cc1c(-c2nnnn2-c2ccc(F)cc2)cnc2cc3c(cc12)OCO3,"inconclusive: 25.1 µM [inhibitor, partial curve]",–
CCOC(=O)c1sc2nccc(N(C)C)c2c1N=CNOCc1ccccc1,"inconclusive: 31.6 µM [inhibitor, single point]",–
COc1ccc(-c2nc3c(=O)n(C)c(=O)[nH]c3n2CCc2ccccc2)cc1,"inconclusive: 3.16 µM [inhibitor, partial curve]",–
COC(=O)c1sccc1NC(=O)CSCCc1ccccn1,–,inactive: -8.69%
NC(=O)c1c(NC(=O)CCCn2cnc([N+](=O)[O-])n2)sc2c1CCCC2,–,inactive: -25.1%
CCOC(=O)C(=CN=C(N)Nc1nc2ccccc2o1)C(=O)OCC,"inconclusive: 10 µM [inhibitor, partial curve]",–
COc1ccc(Cn2c(-c3ccc(OC)cc3)nc3ccccc32)cc1,"inconclusive: 31.6 µM [inhibitor, single point]",–
CC1CCc2c(sc3nc(SCC(=O)NCc4ccco4)nc(N)c23)C1 (stereo not given),"inconclusive: 39.8 µM [inhibitor, single point]",–
CCOC(=O)c1cc(-c2ccco2)nc2c1c(C)nn2-c1ccccc1,"inconclusive: 3.55 µM [inhibitor, single point]",–
C[C@H]1C2=C3C(CC[C@H]4C(OCc5ccc(F)cc5C(F)(F)F)OC[C@](C)([C@@H]34)N(C(=O)OC(C)(C)C)C2)C(CO)C1CO (stereo not given in full),"inconclusive: 25.1 µM [inhibitor, single point]",–
CCCCNC(=O)c1onc(CSc2ccccc2)c1C(=O)O,–,inactive: -9.51%
C=CCc1cc(/C=N/n2cnnc2)cc(OCC)c1O,"inconclusive: 39.8 µM [inhibitor, single point]",–
O=C(N/N=C/c1cc([N+](=O)[O-])ccc1O)c1ccc2c(c1)OCCO2,active: 25.1 µM,–
S=c1[nH]c(-c2ccccc2)cn1/N=C/c1ccncc1,"inconclusive: 35.5 µM [inhibitor, single point]",–
COc1ccc2oc(=O)c(-c3cn4ccc(C)cc4n3)cc2c1,–,inactive: -0.762%
CCOC(=O)c1cc(-c2ccccc2)sc1NC(=O)CC,–,inactive: -1.69%

Compound,Potency,"activity change, negative = inhibition"
N#CC(C#N)=NNc1ccc(S(=O)(=O)N2CCCCC2)cc1,–,inactive: -2.74%
CCCn1c(=O)[nH]c(=O)c2c1nc(-c1ccc(OC(F)F)c(OC)c1)n2CCOC,"inconclusive: 28.2 µM [inhibitor, partial curve]",–
CS(=O)(=O)N1CCN(Cc2ccc(C(F)(F)F)cc2)CC1,"inconclusive: 28.2 µM [inhibitor, single point]",–
O=C(Cc1csc(N2CCOCC2)n1)N/N=C/c1ccc(O)c(O)c1O,active: 8.91 µM,–
CCOc1ccc(-c2c(C)n([O-])c3c([n+]2=O)CCCCC3)cc1,"inconclusive: 39.8 µM [inhibitor, single point]",–
O=C(Cn1nc(-c2ccccc2)ccc1=O)Nc1cccc(NC(=O)c2ccccn2)c1,"inconclusive: 39.8 µM [inhibitor, single point]",–
CC(=O)c1cc(CC=C(C)C)c(O)cc1O,–,inactive: -2.12%
Cc1sc2ncnc(N3CCCCC3)c2c1C,–,inactive: -1.98%
N#Cc1c(C(F)(F)F)cc(-c2cccs2)nc1SCc1ccc(Cl)nc1,"inconclusive: 20 µM [inhibitor, partial curve]",–
O=C(O)c1ccc2nc(-c3ccccc3)sc2c1,"inconclusive: 39.8 µM [inhibitor, single point]",–
CCCCOC(=O)CSCC(=O)N1N=C(c2cccs2)CC1c1ccc(F)cc1 (stereo not given),"inconclusive: 28.2 µM [inhibitor, partial curve]",–
NS(=O)(=O)c1ccc(N2N=C(c3ccc(Br)cc3)CC2c2ccc(F)cc2)cc1 (stereo not given),"inconclusive: 22.4 µM [inhibitor, partial curve]",–
COc1cc2c(cc1NC(=O)c1cccnc1)oc1ccccc12,"inconclusive: 35.5 µM [inhibitor, single point]",–
COc1ncccc1C(=O)N1CCCC(C(=O)c2cccc(OC(C)C)c2)C1 (stereo not given),–,inactive: 6.74%
Cc1cc(C)n(-c2nc(NCC3CCCO3)c3c4c(sc3n2)COC(C)(C)C4)n1 (stereo not given),"inconclusive: 31.6 µM [inhibitor, partial curve]",–
CC(C)n1c(O)c(N=NC(=O)Cc2csc(N3CCOCC3)n2)c2ccccc21,–,inactive: 9.73%
COc1ccc2c(c1)c1ncn(CCN3CCCCC3)c(=O)c1n2C,"inconclusive: 31.6 µM [inhibitor, partial curve]",–
CCCN(CCO)Cc1ccc2ccccc2c1,"inconclusive: 39.8 µM [inhibitor, single point]",–
Cc1ccc2[nH]c(=O)c(CN(CCCN3CCOCC3)C(=O)Nc3cccc(Cl)c3)cc2c1,"inconclusive: 35.5 µM [inhibitor, single point]",–
CCOC(=O)c1c(NC(=O)C2CCN(S(=O)(=O)c3cccs3)CC2)sc(C)c1C,"inconclusive: 28.2 µM [inhibitor, single point]",–
O=C(c1ccc(F)cc1)C1CCN(CCn2c(=O)[nH]c3ccccc3c2=O)CC1,"inconclusive: 22.4 µM [inhibitor, single point]",–
Cc1ccc(S(=O)(=O)NNC(=O)c2cnn(-c3ccc(Cl)cc3)c2C(F)(F)F)cc1,–,inactive: -1.97%
Cc1ccc(NC(=O)CN2C(=O)N/C(=C/c3ccc(C)s3)C2=O)cc1,–,inactive: -7.61%
O=C(O)CCCC(=O)Nc1nc2n(n1)C(c1ccc(F)cc1)CC(c1ccc(Cl)cc1)N2 (stereo not given),"inconclusive: 39.8 µM [inhibitor, single point]",–

Compound,Potency,"activity change, negative = inhibition"
Cc1cc(C)n2nc(C(=O)NNC(=O)c3ccccc3)nc2n1,–,inactive: 7.24%
O=C(NC(=S)Nc1cccc(NC(=O)c2ccccc2)c1)c1cccc([N+](=O)[O-])c1,–,inactive: -2.95%
COc1ccc(NC(=O)c2c(Nc3ccccc3)sc(C(=O)c3ccc(F)cc3)c2N)cc1,–,inactive: 38.8%
CS(=O)(=O)Nc1c(O)ccc2c1CCC[C@H]2C1=NCCN1,–,inactive: 12%
O=C(Nc1cccc2c1C(=O)NC2=O)c1cccnc1Cl,"inconclusive: 35.5 µM [inhibitor, partial curve]",–
COc1ccc(Cl)cc1Nc1ncnc2sc(C)c(S(=O)(=O)N3CCC(C)CC3)c12,"inconclusive: 31.6 µM [inhibitor, partial curve]",–
CCOC(=O)c1cc2c(ccn2C)n1CC(=O)N(Cc1ccccc1)c1ccc(F)cc1,"inconclusive: 35.5 µM [inhibitor, single point]",–
CC(C)Cn1cc(C(=O)NC2CCN(Cc3ccccc3)CC2)c2c3ccccc3n(C)c2c1=O,"inconclusive: 25.1 µM [inhibitor, partial curve]",–
Cc1c(Br)c(=O)oc2c(Br)c(O)c(O)cc12,"inconclusive: 35.5 µM [inhibitor, single point]",–
O=C(O)c1cccc(-n2c(O)c(C=C3N=c4ccccc4=N3)sc2=S)c1,–,inactive: 11.9%
Cc1cc2ccccc2c(=O)[nH]1,"inconclusive: 28.2 µM [inhibitor, single point]",–
Nc1c(C(=O)NCc2ccco2)c2nc3ccccc3nc2n1CCc1ccccc1,"inconclusive: 28.2 µM [inhibitor, partial curve]",–
O=C(O)c1ccc(NS(=O)(=O)c2ccc3c(c2)C2C=CCC2C(c2ccccc2F)N3)cc1 (stereo not given),–,inactive: -23.1%
CC1=NN2C(=N)/C(=C\c3cc(C)n(-c4ccccc4)c3C)C(=O)N=C2S1,"inconclusive: 35.5 µM [inhibitor, single point]",–
N#C/C(=C/c1ccc(N2CCCCCC2)o1)c1cccc(F)c1,–,inactive: -0.165%
Cc1ccc(O)c(-c2cc3ccccc3[nH]2)c1,"inconclusive: 28.2 µM [inhibitor, partial curve]",–
O=P(O)(O)c1cc(-c2ccccc2)oc1-c1ccccc1,"inconclusive: 28.2 µM [inhibitor, partial curve]",–
CS(=O)(=O)Nc1ccc(C2=NN(S(C)(=O)=O)C(c3ccc4c(c3)OCO4)C2)cc1 (stereo not given),"inconclusive: 31.6 µM [inhibitor, partial curve]",–
O=C(CSc1cccc2cccnc12)N/N=C/c1ccc(F)cc1,"inconclusive: 31.6 µM [inhibitor, single point]",–
CCOc1ccccc1CN1CCN(S(C)(=O)=O)CC1,"inconclusive: 25.1 µM [inhibitor, single point]",–
CC(C)Cc1[nH]c(=O)c(C#N)c2c1CCCC2,"inconclusive: 28.2 µM [inhibitor, partial curve]",–
Cc1ccc(-n2nc3c(c2NC(=O)c2ccc4c(c2)OCO4)CSC3)cc1,"inconclusive: 12.6 µM [inhibitor, partial curve]",–
